# Test results published in article PMC6919601, “Identification of Plasmodium dipeptidyl aminopeptidase allosteric inhibitors by high throughput screening” (PLoS ONE, 2019).
# The campaign covered roughly 110,000 compounds. About 230 (0.21%) showed an effect of 50% or more. The list shows a part of the results.
# Target: DPAP1 (Plasmodium falciparum, UniProt Q8IIJ9)
# Test: primary screen, percent inhibition; read by cleavage of a fluorogenic dipeptide substrate; higher = more effect of the substance
# Design: species or system P. falciparum D10 trophozoite lysates; single well
# 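Note: 30 min substrate incubation versus DMSO and 10 µM JCP410 controls.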
# Sequence of DPAP1 (Q8IIJ9 whole entry, looked up): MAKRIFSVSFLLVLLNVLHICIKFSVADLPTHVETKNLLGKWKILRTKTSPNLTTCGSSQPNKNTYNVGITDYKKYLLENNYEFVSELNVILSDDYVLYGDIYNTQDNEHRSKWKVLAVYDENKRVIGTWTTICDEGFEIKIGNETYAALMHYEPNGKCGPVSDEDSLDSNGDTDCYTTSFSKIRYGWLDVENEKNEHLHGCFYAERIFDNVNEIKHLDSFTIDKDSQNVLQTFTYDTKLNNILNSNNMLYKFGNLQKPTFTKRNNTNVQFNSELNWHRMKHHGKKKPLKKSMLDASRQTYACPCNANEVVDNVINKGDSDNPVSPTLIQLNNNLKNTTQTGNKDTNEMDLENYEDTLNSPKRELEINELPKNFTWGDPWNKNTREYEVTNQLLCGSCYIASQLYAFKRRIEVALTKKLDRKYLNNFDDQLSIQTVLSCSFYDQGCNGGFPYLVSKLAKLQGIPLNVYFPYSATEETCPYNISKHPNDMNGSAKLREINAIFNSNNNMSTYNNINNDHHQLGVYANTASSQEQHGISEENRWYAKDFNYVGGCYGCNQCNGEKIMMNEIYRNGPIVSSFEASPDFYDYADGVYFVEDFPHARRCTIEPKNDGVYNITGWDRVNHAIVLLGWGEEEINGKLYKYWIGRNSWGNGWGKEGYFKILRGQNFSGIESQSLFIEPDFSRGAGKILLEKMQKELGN
row,SMILES,% Inhibition @ 10 uM
1,N#CCC(=O)N1CCN(Cc2ccc3c(c2)OCO3)CC1,2.03%
2,CC1(C)CC2=Nc3ccccc3NC(c3c[nH]c4ccccc34)C2=C(O)C1 (stereo not shown),-8.72%
3,Nc1nc(SCc2nc(-c3ccccc3)no2)nc(O)c1-c1ccccc1,-5.41%
4,CC1(C)CC2=Nc3ccccc3NC(c3ccccn3)C2=C(O)C1 (stereo not shown),2.15%
5,O=C1c2cccc3cccc(c23)C(=O)N1CCN1CCN(S(=O)(=O)c2ccc(Cl)cc2)CC1,5.97%
6,C/C=C/[C@H]1OC(=O)N(Cc2ccccc2)[C@H]1c1ccccc1,-0.68%
7,CCc1ccc(S(=O)(=O)N2CCN(c3ccccc3)CC2)cc1,6.21%
8,CC(=O)C1=C(C)OC(N)=C(C#N)C1c1ccco1 (stereo not shown),0.343%
9,Cc1cccc(NC(c2ccccc2F)c2ccc3ccc(C)nc3c2O)n1 (stereo not shown),0.884%
10,CCOC(=O)c1cc2c(=O)n3ccccc3nc2n(CC2CCCO2)/c1=N/C(C)=O (stereo not shown),-3.78%
11,COc1cc2c(cc1OC)CN(C(=O)CSc1nc(C)c(C)c(C)c1C#N)CC2,6.97%
12,Cc1ccc(-c2cc(C(F)F)n3ncc(C(=O)NCc4ccccc4F)c3n2)cc1,-10.9%
13,COc1ccc(N2C(=O)CC(SC(C)C)C2=O)cc1 (stereo not shown),-0.553%
14,CCOc1ccc(S(=O)(=O)Nc2cc3sc(=O)oc3c3ccccc23)cc1,5.87%
15,Cc1nc2n(n1)C(c1ccccc1)C=C(c1ccccc1)N2 (stereo not shown),-4.15%
16,CCOc1ccccc1NC(=O)CN(Cc1ccccc1)S(C)(=O)=O,-1.35%
17,CC(C)(C)NC(=O)c1cc(-c2ccccc2)[nH]n1,-2%
18,CC(C)C[C@H](NC(=O)c1csc(-c2cccc([N+](=O)[O-])c2)n1)C(=O)NCC#N,7.72%
19,CC1CC(C)CN(C2CCN(C)CC2)C1 (stereo not shown),-5.44%
20,C=CCN1C(=O)C2(NC(CCSC)C3C(=O)N(Cc4ccccc4)C(=O)C32)c2ccccc21 (stereo not shown),-7.28%
21,CC(C)C[C@H](NC(=O)OCc1ccccc1)C(=O)NC(C#N)c1ccc(Br)s1 (stereo partly shown),4.63%
22,COC(=O)C1=CNC=C(C(=O)OC)C1c1ccccc1OC(C)C,-2.87%
23,O=C(CN(Cc1ccc(F)cc1)S(=O)(=O)c1ccccc1)Nc1ccc(Br)cc1F,2.27%
24,COc1cccc(OC)c1C(=O)Nc1cccc(F)c1,-3.39%
25,NC(=O)CC1NC(=O)c2ccccc21 (stereo not shown),4.63%

row,SMILES,% Inhibition @ 10 uM
1,CCCC(=O)Nc1nn2c(-c3ccccc3)nnc2s1,-2.17%
2,Cc1cc(C(F)(F)F)nn1CC(=O)N(C)C1CCCCC1,-2.24%
3,Cc1nc(N2CCCCC2)c2c3c(sc2n1)CC(C)CC3 (stereo not shown),-0.511%
4,O=C(N/C(=C\c1ccccc1)C(=O)N1CCOCC1)c1cccc(Br)c1,0.674%
5,Cc1cccc(C(=O)OCC(=O)c2ccc(Cl)cc2)c1,-5.36%
6,Cc1c(CNCc2ccccc2)c(C(=O)O)c(C)n1Cc1ccccc1,1.41%
7,O=C(O)c1cc(Cl)c(Cl)cc1C(=O)Nc1ccccc1,-1.51%
8,COc1cccc(C(=O)N2CCN(Cc3ccccn3)CC2)c1,5.55%
9,Cc1cc2ccccc2c(=O)n1CC(=O)NCC(=O)N(C)Cc1ccccc1,-4.67%
10,CC1CCN(Cc2c(O)ccc3c(=O)c(-c4ccc5c(c4)OCCO5)coc23)CC1,-1.82%
11,CCc1sc(C2C(C#N)=C(N)OC3=C2C(=O)CCC3)cc1Br (stereo not shown),-4.03%
12,Cc1ccc(Oc2ccc3c(c2)C(=O)N(CC(=O)O)C3=O)cc1,-4.75%
13,Cc1ccc(CN2CCN(c3ccc(Cl)cc3)CC2)cc1,-5.5%
14,COC(=O)C1CC2=CC(=O)CCC2(C)C2=CCC3(C)C(CC[C@@]34CCC(=O)O4)C21 (stereo partly shown),5.37%
15,CCCC(=O)Nc1ccccc1C(=O)N(C1CCCCC1)C1CCCCC1,-1.56%
16,CCOC(=O)c1nnc(Cc2ccc(Cl)cc2)o1,-0.414%
17,CC(Oc1ccccc1)C(=O)N1CCN(c2ccc(F)cc2)CC1 (stereo not shown),-2.77%
18,Cn1c(=O)c2c(O)c(Cc3ccccc3)c(O)nc2n(C)c1=O,5.48%
19,Cc1ccc(S(N)(=O)=O)cc1NC(=O)c1ccc(F)cc1,-5.59%
20,COc1ccc(NC(=O)c2cc(-c3ccc(C)o3)nc3ccccc23)c(OC)c1,7.06%
21,CCCOc1ccc(CNC(=O)Cn2nc(C)c3sc4ccccc4c3c2=O)cc1,-2.78%
22,COc1ccc(C2C(C#N)=C(N)Nc3ncnn32)cc1 (stereo not shown),10.5%
23,CCN(Cc1ccccc1)S(=O)(=O)c1ccc(OC)cc1,-5.32%
24,Cc1ccc2c(=O)cc(C(=O)Nc3nc(C)c(C(=O)OCC(C)C)s3)oc2c1,-5.08%
25,COC(=O)c1ccc2nc(C)c(CN(C)C)c(O)c2c1,-4.84%

row,SMILES,% Inhibition @ 10 uM
1,CCCC(=O)c1ccc(N2CCN(C(=O)c3cccc(F)c3F)CC2)c(F)c1,-7.15%
2,O=C(Nc1nnc(SCCN2C(=O)c3ccccc3S2(=O)=O)s1)c1ccccc1,-3.53%
3,Cc1cccc(C(=O)Nc2cccc(C#N)c2)c1,1.13%
4,COc1ccccc1OCCCCN1CCC(C)CC1,-3.04%
5,Clc1ccccc1-c1nnc(COc2ccc3ccccc3c2)o1,5.29%
6,CCOc1ccccc1NC1=C(Cl)C(=O)N(c2cc(Cl)ccc2OC)C1=O,-0.941%
7,COc1ccc(CCNC(=O)c2nn(C)cc2Cl)cc1,0.413%
8,O=C1CSC2=NCN(c3cccc(Cl)c3)CN12,-4.21%
9,CO/C(=N\C1CCCCC1)C(O)c1c[nH]c2ccccc12 (stereo not shown),2.06%
10,Cc1cc(OCC(O)CN2CCN(c3ccccc3F)CC2)ccc1Cl (stereo not shown),-7.93%
11,COc1ccc(NC(=O)C2CC(=O)N(c3ccc(OC(C)C)cc3)C2)cc1 (stereo not shown),-2.03%
12,COc1ccc2c(C)c(CC(=O)NCc3ccc4c(c3)OCO4)c(=O)oc2c1C,2.54%
13,COc1ccc(CC(=O)NCCN2CCCC2)cc1,1.29%
14,COc1ccc2occ(C(=O)/C=C/N(C)C)c2c1,4.56%
15,CCOc1ccc(-c2cc3nc(C4CCN(C(=O)OC(C)(C)C)CC4)c(C(=O)O)cn3n2)cc1,-1.08%
16,Oc1ncc(CN2CCCCC2)c(O)n1,0.135%
17,COc1ccc(S(=O)(=O)N(CC(=O)N2CCc3ccccc3C2)c2ccc(F)cc2)cc1OC,-6.38%
18,CC1CC(C)CN(C(=O)c2ccc(CSc3nc4ccncc4[nH]3)cc2)C1 (stereo not shown),-1.58%
19,CC(C)CCn1c(=O)c2ccccc2n2c(CCC(=O)NCCc3ccc(Cl)cc3)nnc12,0.277%
20,CCOC(=O)c1[nH]c2ccccc2c1NC(=O)C12CC3CC(CC(C3)C1)C2,2.17%
21,COc1ccc(CCNC(=O)CSc2nc(NCc3ccccc3)c3ccccc3n2)cc1OC,-0.823%
22,Cc1cc(C)nc(NS(=O)(=O)c2ccc(NC(=O)c3ccccc3C(=O)O)cc2)n1,-11.7%
23,O=C(O)c1ncccc1C(=O)N1CCN(C(=O)c2ccco2)CC1,-1.22%
24,O=C1/C(=C/c2ccco2)CCc2c1cnc1ccc3ccccc3c21,-5.15%
25,Cc1ccc2[nH]c(C)c(/C=C3\C(=N)N4N=C(N5CCOCC5)SC4=NC3=O)c2c1,-3.44%

row,SMILES,% Inhibition @ 10 uM
1,CCOc1cc(C2CC(=O)Nc3c2c(=O)nc(SCC)n3C)ccc1O (stereo not shown),3.65%
2,CCCN1CCN(C(=O)c2ccc3c(Cl)c4c(nc3c2)CCCC4)CC1,0.232%
3,O=C(NC1CCCCCC1)c1cncc(Br)c1,-0.68%
4,CCCNC(=O)c1cc(Cl)cc(Cl)c1NC(=O)c1ccc(OC)cc1,4.31%
5,Cc1ccc(OCC(=O)Nc2ccc(NC(=O)COc3ccc(C)cc3)cc2)cc1,-3.92%
6,CCCCNC(=O)OCCNS(=O)(=O)c1ccccc1[N+](=O)[O-],2.5%
7,Cn1nccc1C(=O)Nc1cnn(Cc2ccc(F)cc2)c1,2.64%
8,O=C(Nc1ccc(Cl)cc1)Nc1cccc2c(=O)[nH][nH]c(=O)c12,-1.91%
9,Cc1cc(NC(=O)C2CC(c3ccccc3F)=NO2)no1 (stereo not shown),-0.431%
10,O=C(NCc1nc(-c2ccccc2)no1)c1cccs1,-8.69%
11,Cc1ccc2oc(=O)c3cc(C(=O)Nc4nc(C)cs4)sc3c2c1,4.15%
12,C=CCOc1cccc(/C=C2/N=C(C)C(C(=O)OC)=C2O)c1,1.81%
13,COc1nc2c(C)cccc2cc1-c1noc(-c2cccnc2)n1,-0.671%
14,CC(C)C(=O)N1CCN(CCNC=C2C(=O)N(C)C(=O)N(C)C2=O)CC1,-0.736%
15,O=C(NCc1cccc(C(F)(F)F)c1)C1CCCN(c2cnccn2)C1 (stereo not shown),5.43%
16,O=C(O)C1CCC(C/N=c2\cc(O)oc3ccccc23)CC1 (stereo not shown),1.76%
17,COc1ccc(/C=C(\C#N)c2nc(-c3ccc(OC)cc3)cs2)cc1,0.467%
18,NC1=C(c2ccccc2)S(=O)(=O)c2cc(Oc3ccccc3)ccc21,1.93%
19,Cc1nc2c(=O)n(C)c(=O)nc-2n(C)n1,14.5%
20,CC(=O)c1ccc(OCCOc2ccc(C#N)cc2)cc1,-8.51%
21,COc1ccc2nc(NC(=O)C3CCN(S(=O)(=O)c4cccc5nonc45)CC3)sc2c1,-1.29%
22,Cc1cc(-c2ccc(C)c(S(=O)(=O)N3CCC(Cc4ccccc4)CC3)c2)on1,6.77%
23,C=Cc1ccc(Cn2c(C(=O)O)c(CNCC3CCCO3)c3ccc(C)cc32)cc1 (stereo not shown),4.78%
24,CC(C)CCNC(=O)c1ccc2c(Cl)c3c(nc2c1)CCC3,1.15%
25,O=C(O)c1ccc2c(c1)C(=O)N(Cc1ccc3c(c1)OCO3)C2=O,-3.87%
